Assay results as given in the antibiotic and cytotoxicity screens of Wong et al. (2023).
Some of the results follow.

Tested on: S. aureus RN4220
Assay: growth inhibition call (relative growth <= 0.2)
Settings: 50 µM

Growth inhibition call, active:
CC(C)N1C[C@H](C)[C@@H](CN(C)Cc2ccc(Oc3ccccc3)cc2)Oc2c(NC(=O)C3CCNCC3)cccc2C1=O

Growth inhibition call, inactive:
C[C@@H]1CN([C@@H](C)CO)S(=O)(=O)c2ccc(Br)cc2O[C@@H]1CN(C)C(=O)c1ccccn1, CCC(=O)N(C)C[C@H]1Oc2ncc(C#C[C@H](C)O)cc2C(=O)N([C@H](C)CO)C[C@H]1C, COc1ccc(CN(C)C[C@H]2Oc3ccc(NC(=O)CCCCCC(=O)Nc4ccccc4N)cc3CC(=O)N([C@@H](C)CO)C[C@H]2C)cc1, Cc1noc(C)c1NC(=O)N(C)C[C@H]1OCCCC[C@H](C)Oc2ccc(NC(=O)Cc3ccccc3)cc2C(=O)N([C@H](C)CO)C[C@@H]1C, C[C@@H]1CN([C@H](C)CO)C(=O)c2cc(C#CC3CCCCC3)cnc2O[C@H]1CN(C)C(=O)Cc1ccccn1, C[C@@H]1CN([C@@H](C)CO)C(=O)c2cc(N(C)C)ccc2O[C@@H](C)CCCCO[C@@H]1CN(C)C(=O)Nc1cccc2ccccc12, C[C@@H]1CN([C@H](C)CO)C(=O)c2cc(NS(=O)(=O)c3ccc(Cl)cc3)ccc2O[C@H]1CN(C)S(C)(=O)=O, C[C@@H]1CN([C@H](C)CO)C(=O)c2cc(NC(=O)Cn3cnnn3)ccc2O[C@@H]1CN(C)S(=O)(=O)c1ccc(F)cc1, NC(=O)CSc1nc(N)cc(N)n1, Cc1cc(C)c(S(=O)(=O)Nc2cc([C@@H](C(=O)OC(C)C)C(=O)C(F)(F)F)c(O)c3ccccc23)c(C)c1, C[C@H](CO)N1C[C@H](C)[C@H](CN(C)S(C)(=O)=O)OCCCC[C@H](C)Oc2ccc(NC(=O)Nc3cccc4ccccc34)cc2C1=O, C[C@@H]1CN([C@H](C)CO)C(=O)c2cc(NC(=O)Nc3ccccc3)ccc2O[C@@H](C)CCCCO[C@@H]1CN(C)C(=O)CCC(F)(F)F, COC(=O)Cn1c(=O)c2c(OC)c(C)cnc2n(C)c1=O, O=C(NCCO[N+](=O)[O-])c1cccnc1, C[C@@H]1CCCCO[C@@H](CN(C)S(=O)(=O)c2cn(C)cn2)[C@H](C)CN([C@H](C)CO)C(=O)c2cc(NC(=O)Nc3ccc(C(F)(F)F)cc3)ccc2O1, C[C@@H]1CN([C@H](C)CO)C(=O)CCCn2nncc2CO[C@H]1CN(C)C(=O)Nc1ccccc1C(F)(F)F, COc1ccc(CN(C)C[C@@H]2OCCCC[C@@H](C)Oc3ccc(NC(=O)c4ccccc4)cc3C(=O)N([C@@H](C)CO)C[C@H]2C)cc1, C[C@H](CO)N1C[C@H](C)[C@H](CN(C)C(=O)Nc2ccc3c(c2)OCO3)OCCCC[C@H](C)Oc2ccc(NC(=O)CCCCCC(=O)Nc3ccccc3N)cc2C1=O, Cc1[nH]c(=O)[nH]c(=O)c1S(=O)(=O)N1CCC(C(=O)NCCC(C)C)CC1, C[C@@H]1CN([C@H](C)CO)C(=O)c2cccc(NC(=O)c3nc4ccccc4s3)c2O[C@H]1CN(C)S(C)(=O)=O, C[C@H](CO)N1C[C@H](C)[C@@H](CN(C)S(=O)(=O)c2cn(C)cn2)Oc2ccc(NC(=O)C3CC3)cc2C1=O, C[C@@H]1CN([C@H](C)CO)C(=O)Cc2cc(NS(C)(=O)=O)ccc2O[C@@H]1CN(C)Cc1ccc2c(c1)OCO2, C[C@@H]1CCCCO[C@@H](CN(C)C(=O)c2ccccc2)[C@@H](C)CN([C@H](C)CO)C(=O)c2cc(NC(=O)Cc3ccccc3)ccc2O1, Cc1noc(C)c1NC(=O)N(C)C[C@@H]1Oc2ccc(NC(=O)CCN3CCOCC3)cc2CC(=O)N([C@@H](C)CO)C[C@@H]1C, C[C@H](CO)N1C[C@H](C)[C@@H](CN(C)S(=O)(=O)c2ccccc2)Oc2cc(Br)ccc2S1(=O)=O, Cc1ccc(S(=O)(=O)Nc2ccc3c(c2)C(=O)N([C@H](C)CO)C[C@H](C)[C@H](CN(C)Cc2ccc(C(F)(F)F)cc2)O3)cc1, C[C@@H]1CCCCO[C@@H](CN(C)Cc2ccc(C(=O)Nc3ccccc3N)cc2)[C@@H](C)CN([C@H](C)CO)C(=O)c2cc(NC(=O)C3CCCCC3)ccc2O1, COc1ccc(S(=O)(=O)Nc2ccc3c(c2)C(=O)N([C@@H](C)CO)C[C@@H](C)[C@@H](CN(C)Cc2ccc4c(c2)OCO4)OCCCC[C@H](C)O3)cc1, Cc1noc(C)c1S(=O)(=O)N(C)C[C@@H]1Oc2ccc(NS(=O)(=O)c3ccccc3)cc2CC(=O)N([C@H](C)CO)C[C@H]1C, CC(C)c1c(O)c(-c2cc3c(c(C(C)C)c2O)CCC2C(C)(C)CCCC32C)cc2c1CCC1C(C)(C)CCCC21C (stereo not given), C[C@H](CO)N1C[C@H](C)[C@H](CN(C)Cc2ccc(Cl)c(Cl)c2)OCCCC[C@H](C)Oc2ccc(NS(C)(=O)=O)cc2C1=O, C[C@@H]1CN([C@H](C)CO)C(=O)c2cccc(NC(=O)Nc3cccc4ccccc34)c2O[C@@H]1CN(C)Cc1ccccc1, O=c1ccc(=O)n(-c2ccccc2)[nH]1, C[C@H]1CN([C@@H](C)CO)C(=O)c2cc(C#Cc3cccc(F)c3)cnc2O[C@H]1CN(C)CC1CCOCC1, COc1ccc(S(=O)(=O)N(C)C[C@H]2Oc3ccc(NC(=O)NC(C)C)cc3C(=O)N([C@H](C)CO)C[C@H]2C)cc1, C[C@@H]1CN([C@@H](C)CO)C(=O)c2cccc(NS(=O)(=O)c3cn(C)cn3)c2O[C@H]1CN(C)Cc1ccc(C(=O)O)cc1, C[C@H]1CN([C@@H](C)CO)C(=O)c2cc(NS(=O)(=O)c3ccccc3)ccc2O[C@@H]1CN(C)S(=O)(=O)c1cn(C)cn1, CCCN1CCC2(CC1)NC(=O)N(CC(=O)N1CCN(C(=O)OCC)CC1)C2=O, C/C(=C/C(=O)N1CCN(C)CC1)C(=O)O
